# In ChEMBL document CHEMBL1156829:
# The full ranking holds about 5,400 compounds; the median of “IFI” is about 2, and the highest 2% start at about 22. Some of the results follow.
# Test: NOVARTIS: Inhibition Frequency Index (IFI) - the number of HTS assays where a compound showed > 50% inhibition/induction, expressed as a percentage of the number of assays in which the compound was tested.
# Format: functional
row,Compound,IFI [%]
1,COc1ccc(Nc2ncnc3[nH]c(-c4cccc([N+](=O)[O-])c4)cc23)cc1,7.14
2,Cc1cccc(Nc2nc3nonc3[nH]c2=NN=Cc2cccs2)c1C,0
3,NC(=O)C1CCN(S(=O)(=O)c2cc(Br)c(Br)s2)CC1,7.14
4,CCOc1ccc(C(=O)N2CCN(Cc3ccccc3)CC2)cc1,0
5,NC(=S)NN=CC(=NNC(N)=S)c1ccccc1,11
6,OC(Cn1nnc2ccccc21)Cn1c2ccc(Br)cc2c2cc(Br)ccc21 (configuration not stated),2.01
7,COc1ccc(-n2c(SCC(=O)Nc3cc(Cl)ccc3OC)nnc2-c2ccccc2)cc1,4.42
8,COc1cc(NC(=O)Cn2c3ccccc3c(=O)c3ccccc32)cc(OC)c1OC,3.61
9,Clc1ccc2c(c1)c1cc(Cl)ccc1n2CC1CO1 (configuration not stated),17
10,O=C(c1c2c(nc3ccccc13)CCC2)N1CCc2ccccc21,2.86
11,CN(C=Cc1sc2ccc3ccccc3c2[n+]1C)c1ccccc1,9.09
12,COC(=O)c1c(-c2c(F)cccc2Cl)noc1/C=C/Nc1ccc(OC)cc1,3.95
13,Nc1nc(N)c2nc(CCc3ccc(C(=O)N[C@H](CCC(=O)O)C(=O)O)cc3)cnc2n1,16
14,CC(NS(=O)(=O)c1ccccc1)C(c1cccs1)N1CCN(c2ccccc2F)CC1 (configuration not stated),6.06
15,CC[C@H](C)C[C@H]1CC[C@](O)([C@](C)(O)C(=O)N[C@@H]2C(=O)N3NCCC[C@@H]3C(=O)N(O)[C@@H](C)C(=O)NCC(=O)N3NCCC[C@H]3C(=O)N(O)[C@H](C)C(=O)O[C@H]2C(C)C)O[C@@H]1C,34.4
16,CCCn1c(C(CC)N2CCNCC2)nc2ccccc2c1=O (configuration not stated),2.8
17,CC1CC(C)CN(CCCNc2ccc(C(=O)Nc3ccc(C(F)(F)F)cc3)cc2[N+](=O)[O-])C1 (configuration not stated),0
18,CCOC(=O)C1=C(C)NC2=C(C(=O)CC(c3ccc(OC)c(OC)c3)C2)C1c1cccc(Br)c1 (configuration not stated),2.35
19,COc1ccc(NC(=O)c2cc3cc(C4(O)CCN(CC(C)c5ccccc5)CC4)ccc3o2)cc1 (configuration not stated),3.92
20,Cc1cccc(NC(=O)c2ccc(NCCCC3CCCCCC3)c([N+](=O)[O-])c2)c1,0
21,OC1=C2C(=Nc3ccccc3SC2c2cccs2)c2ccccc21 (configuration not stated),2.27
22,CCN(c1ccc(OC)cc1)S(=O)(=O)c1ccc(C)cc1,0
23,Cc1c(/C=C2\SC(=Nc3ccccc3F)N(C3CCCCC3)C2=O)c2ccccc2n1CC(N)=O,2.44
24,CC1CCCCN1CCCNc1ncc(C(=O)NCCCN2CCCC2=O)c(NCC2CCCCC2)n1 (configuration not stated),3.92
25,COc1ccccc1-n1c(S)nnc1-c1ccccc1O,3.57

row,Compound,IFI [%]
1,COc1ccc([C@@H]2Nc3ccc(C(C)=O)cc3[C@@H]3C=CC[C@@H]32)cc1[N+](=O)[O-],0
2,COc1ccccc1NC(=O)CCN1CCCC(C)C1 (configuration not stated),0
3,COc1cc(/C=C2/SC(=Nc3ccccc3)NC2=O)ccc1OCc1ccccc1F,1.14
4,COC(=O)c1c(OCc2ccc(F)cc2)cc(=O)n2c1CCN(Cc1ccccc1)CC2,0
5,Cc1cccc(NC(=S)NC2CC3CCCC(C2)N3CCc2ccccc2)c1 (configuration not stated),2.56
6,CC(=O)c1c(C)oc2ccc(NS(=O)(=O)c3cccc(C(=O)O)c3)cc12,0
7,O=c1[nH]c2cc(Cl)c(Br)nc2[nH]1,0
8,CCN1/C(=C/c2cccc[n+]2C)C=Cc2ccc(C)cc21,7.79
9,CN(C)c1nc(Cl)nc(N(C#N)CCOc2ccccc2)n1,0
10,COc1cc(C(=O)N2N=C(c3c(-c4ccccc4)c4cc(Br)ccc4[nH]c3=O)CC2c2cccc([N+](=O)[O-])c2)cc(OC)c1OC (configuration not stated),1.11
11,COc1cc2nc(NCCN3CCOCC3)n3nc(-c4ccccc4)nc3c2cc1OC,0
12,CCOC(=O)C1=C(C)NC2=C(C(=O)CC(c3ccc(OC)c(OC)c3)C2)C1c1cccc(Cl)c1 (configuration not stated),3.53
13,O=C(Nc1ccc(C2=NCCN2)cc1)c1ccc(-c2ccc(C(=O)Nc3ccc(C4=NCCN4)cc3)cc2)cc1,4.4
14,CCCCOc1nc(-c2ccc(OC)cc2)n(C(=O)c2ccccc2OC)n1,7.41
15,O=[N+]([O-])c1ccc(S(=O)(=O)N2CCN(C(=S)NCc3ccccc3)CC2)cc1,0
16,Cc1cc(C)c(S(=O)(=O)N2CCC(NC(=O)c3ccccc3)CC2)c(C)c1,3.8
17,CCOc1cccc(Nc2c3c(nc4ncnn24)CCC3)c1,0
18,O=C(Nc1cc(Cl)cc(Cl)c1)Nc1cccc(C(F)(F)F)c1,17.3
19,CCC(C)(C)C1CCc2sc3ncnc(NN=Cc4c(Cl)cccc4Cl)c3c2C1 (configuration not stated),4.41
20,CCC(=O)N=c1sc2cc([N+](=O)[O-])ccc2n1CCOC,0
21,CCNc1nc(OC)nc(Oc2ccc(=O)n(-c3ccccc3)n2)n1,0
22,COc1ccc(-c2nc(-c3ccc(-c4[nH]c(-c5ccc(OC)cc5)nc4-c4ccccc4)cc3)c(-c3ccccc3)[nH]2)cc1,0
23,O=C1CN(C(=O)CCC2CCCCC2)C(c2ccccc2)c2cc(F)ccc2N1 (configuration not stated),5.88
24,CCOC(=O)c1ccc(N(C(=O)Cc2c[nH]c3ccccc23)C(C(=O)NC2CCCCC2)c2cccc(OC)c2OC)cc1 (configuration not stated),1.92
25,O=C(Nc1ccc(-c2nc3ccc(NC(=O)c4cccc5ccccc45)cc3[nH]2)cc1)c1cccc2ccccc12,0

row,Compound,IFI [%]
1,Cc1ccn2c(NC(C)(C)CC(C)(C)C)c(-c3ccccc3OC(=O)c3ccccc3Br)nc2c1,2.13
2,COc1ccc(C(=O)/C(C#N)=C/NC2CCN(Cc3ccccc3)CC2)cc1,3.33
3,COc1ccc(CCN2C(=O)N(CC(C)C)C(=O)C23CCN(Cc2ccccc2O)CC3)cc1,7.32
4,CCCc1c2ccc(C)n2cc[n+]1CC(=O)c1ccc(OC)cc1,4.54
5,CCN(CC)c1ccc(C2N(Cc3ccccc3)CCN2Cc2ccccc2)c(O)c1,0
6,COc1cc(C(=O)OCCC2CCC[N+]3(C)CCCCC23)cc(OC)c1OC (configuration not stated),1.85
7,CN(CCCNc1ccnc2cc(Cl)ccc12)C(=O)COc1ccccc1,2.8
8,CCOC(=O)C1=C(C)NC2=C(C(=O)CC(c3ccc(OC)c(OC)c3)C2)C1c1ccccc1Br (configuration not stated),3.53
9,COc1cccc(-c2ccc(O)c(CN3CCCC(C)C3)c2)n1 (configuration not stated),2.88
10,CCc1ccccc1N(CC(=O)NC1CCCCC1)C(=O)CCC(=O)Nc1ccccn1,1.56
11,CCc1cc2c(Nc3ccncc3)ncnc2s1,1.51
12,CCCCn1c(=N)n(CC(O)c2ccc(Cl)c(Cl)c2)c2ccccc21 (configuration not stated),7.69
13,CCN1CCCC1CNc1[nH]cnc2c3cc(F)ccc3nc1-2 (configuration not stated),2.44
14,CC(Oc1ccc(Cl)cc1Cl)c1nc(-c2ccc(NC(=O)c3ccco3)cc2)no1 (configuration not stated),3.64
15,CCN(CC)CCN1C(=O)c2ccccc2NC1c1ccc(C)cc1 (configuration not stated),6.98
16,COc1ccc(C2CC(=O)C3=C(C2)NC(C)=C(C(=O)OC2CCCC2)C3c2ccc(Cl)cc2Cl)cc1 (configuration not stated),5.88
17,CC(C)(C)c1ccc(O)c(CNC2CCCCC2)c1,0
18,COc1ccc(S(=O)(=O)N=C2C=C(Nc3ccccc3OC)C(=O)c3ccccc32)cc1,23.1
19,Cc1ccc(C(C(=O)NCc2ccccc2)N(C(=O)c2snc(C(N)=O)c2N)c2ccccc2)o1 (configuration not stated),4.67
20,CC(C)(C)c1ccc(CNC(=O)C(Cc2ccc(O)cc2)c2ccccc2)cc1 (configuration not stated),0
21,CCOc1ccc(C(=O)C[N+]2=C(CC)c3ccc(C)n3CC2)cc1,0
22,CCOc1ccc(CCNC(=O)c2cccs2)cc1OCC,0
23,C=CC[n+]1ccc(/C=C/c2ccccc2)c(C)c1,0
24,COc1ccc(-n2nc(C(=O)NCC(=O)Nc3nc4ccccc4s3)c3ccccc3c2=O)cc1Cl,4.65
25,COc1cc(CNc2ccc3nc(N)nc(N)c3c2)cc(OC)c1OC,0

row,Compound,IFI [%]
1,CCCCN(CC(=O)N1c2ccccc2-n2cccc2C1c1ccc(OC)cc1)C(=O)Nc1cccc(F)c1 (configuration not stated),6.73
2,CC(C)(C)c1ccc(-c2nc(C34CC5CC(CC(C5)C3)C4)cs2)cc1,1.1
3,CCCCNC(=O)C(CC)Sc1nnc(-c2ccc(C)cc2)c(-c2ccc(C)cc2)n1 (configuration not stated),0
4,CCn1ccccc1=Nc1cccc[n+]1CC,7.69
5,Cc1cc(C)cc(-n2c(C)cc(/C=C3\SC(=Nc4ccc(Cl)cc4)NC3=O)c2C)c1,4.82
6,CC1(c2ccccc2)CC(c2ccccc2)=Nc2nonc2N1 (configuration not stated),1.22
7,CCCCCCC(=O)NC1CCC(Nc2ccnc3cc(Cl)ccc23)CC1 (configuration not stated),7.14
8,COCCNC(=O)C(c1ccc(C)cc1)N(Cc1ccccc1)C(=O)CCC(=O)Nc1nccs1 (configuration not stated),11.3
9,CC(C)(C)CC(C)(C)c1ccc(OCC(=O)NN=C2C(=O)Nc3ccccc32)c([N+](=O)[O-])c1,2.19
10,COCCOC(=O)C1=C(C)NC2=C(C(=O)CCC2)C1c1ccc(OC)c(OC)c1OC (configuration not stated),2.9
11,CCCCc1ccc(NC(C)=O)cc1,2.13
12,O=[N+]([O-])c1cc(NC2OC(CO)C(OC3OC(CO)C(O)C(O)C3O)C(O)C2O)ccc1Cl (configuration not stated),0
13,CCCCN(CC)C(=O)CSc1nc2ccccc2c(=O)n1Cc1ccco1,0
14,CC1CC(C)CN(C(=O)c2sc3ccccc3c2Cl)C1 (configuration not stated),0
15,COc1nccnc1NS(=O)(=O)c1ccc(NC(=O)c2cc3ccccc3oc2=O)cc1,1.15
16,CCN1c2ccccc2N=C2C=CC(N)=CC21 (configuration not stated),0
17,COc1cc(OC)c(N(C)S(=O)(=O)c2cccc(C(=O)OCC(=O)Nc3ccccc3C(C)=O)c2)cc1Cl,9.68
18,CC1(C)Cc2nc3ccccc3c(NCc3ccc(Cl)cc3)c2C(O)C1 (configuration not stated),0
19,COc1cc(OC)c(N(C)C(=O)c2cc3c(s2)-c2ccccc2S(=O)(=O)C3)cc1Cl,2.78
20,O=C(Nc1nc(-c2ccccn2)cs1)c1ccc(Oc2ccc(C(=O)Nc3nc(-c4ccccn4)cs3)cc2)cc1,12.6
21,O=C(O)c1nsnc1C(O)C(O)C(=O)O (configuration not stated),0
22,CCCCCc1ccc(C(=O)N(CCCC(C)Nc2cc(OC)cc3cccnc23)Cc2ccc(OC)c(OC)c2)cc1 (configuration not stated),3.7
